Several values for one entry are separate records, joined by “and”; a condition that tells them apart may be missing. Equal values may be shown once. The full ranking holds about 5,400 compounds; the median of “IFI” is about 2, and the highest 2% start at about 22. Some of the results follow.
experiment: NOVARTIS: Inhibition Frequency Index (IFI) - the number of HTS assays where a compound showed > 50% inhibition/induction, expressed as a percentage of the number of assays in which the compound was tested.; assay type: functional

| SMILES | IFI |
| --- | --- |
| COc1ccc2c(c1OC)C(=O)N1c3ccccc3N=C(c3ccc(I)cc3)CC21 (stereo not given) | 0.725% |
| COc1ccc(C2N=C(N)N=C(N)N2c2ccc(C)cc2)cc1 (stereo not given) | 1.37% |
| NCC(c1ccc(F)cc1)c1ccc(F)cc1 | 0% |
| Oc1ccccc1-c1nc(-c2ccccc2)nc(-c2ccc(Br)cc2)n1 | 0% |
| CC(C)(C)c1ncccc1OC(=O)C12CC3CC(CC(C3)C1)C2 | 3.15% |
| CCOC(=O)c1c(NC(C)=O)sc2c1CCN(C(C)C)C2 | 0% |
| COc1cc(/C=C(\C#N)c2nc3ccccc3[nH]2)ccc1OCc1ccc(Cl)cc1 | 0% |
| C[n+]1cccc2ccc3cccnc3c21 | 1.39% |
| CCN1CCN(c2cc(C)c3cc(NC(=O)/C=C/c4ccccc4Cl)ccc3n2)CC1 | 8.2% |
| CCn1c(SCC(=O)NCCc2ccccc2)nc2sc3c(c2c1=O)CCN(C)C3 | 8% |
| Cc1nc(-c2ccccc2)nc(C(=O)N2CCN(C(=O)/C=C/c3ccccc3)C(C)C2)c1C(=O)OC(C)C (stereo not given) | 1.89% |
| O=C(C1CCC1)N1CCN(c2ccccn2)CC1 | 0% |
| Cc1ccc(N2C(=O)C3C(C2=O)C2(c4ccccc4)C(=O)C3(c3ccccc3)C(c3ccccc3)=C2c2ccccc2)c([N+](=O)[O-])c1 (stereo not given) | 0% |
| CCCCCN1/C(=C\C=C\c2n(CCCCC)c3cc(Cl)c(Cl)cc3[n+]2CC)N(CC)c2cc(Cl)c(Cl)cc21 | 0% |
| CCCCCC(=O)N(CCN(C)C)C(CC)c1nc2ccccc2c(=O)n1-c1ccc(F)cc1 (stereo not given) | 0% |
| COc1cc(C(=O)NCc2ccco2)ccc1OC1CCN(CC(c2ccccc2)c2ccccc2)CC1 | 1.45% |
| O=C(CCl)NCCCN(C(=O)Nc1ccc(Cl)c(Cl)c1)c1ccccc1 | 4.17% |
| CCN1CCN(Cc2cc(=O)oc3cc(-c4ccccc4)c(O)cc23)CC1 | 0% |
| CN(C)c1ccc(/C=C/c2cc(/C=C/c3ccc(N(C)C)cc3)[n+]3ccccc3n2)cc1 | 21.4% |
| CCCCCc1ccc(OCCOCC[n+]2ccccc2)c(CCCCC)c1 | 4.54% |
| CCOC(=O)C1=C(C)N(CCNc2ncc(C(F)(F)F)cc2Cl)C(=O)CC1 | 0% |
| CCNc1nc(NC(C)C)nc(NC(N)NOC)n1 (stereo not given) | 0% |
| O=C(NC(c1ccccc1)c1ccccc1)N(Cc1ccccc1)CC(O)CN(CCN1CCOCC1)S(=O)(=O)Cc1ccccc1 (stereo not given) | 1.94% |
| O=C1CC(c2ccccc2)CC2=C1C(c1ccccc1[N+](=O)[O-])Nc1ccccc1N2 (stereo not given) | 1.07% |
| c1ccc2cc3c(N4CCN(CCN5CCN(c6ccnc7cc8ccccc8cc67)CC5)CC4)ccnc3cc2c1 | 8.2% |

| SMILES | IFI |
| --- | --- |
| OC(COc1ccccc1CNCCN1CCCC1)CN1CCc2ccccc2C1 (stereo not given) | 7.69% |
| Nc1c(C(=O)Nc2ccc(C3=NCCN3)cc2)cccc1C(=O)Nc1ccc(C2=NCCN2)cc1 | 7.41% |
| CC(=O)Nc1ccc(-c2nc(-c3ccc(Oc4ccc(-c5[nH]c(-c6ccc(NC(C)=O)cc6)nc5-c5ccccc5)cc4)cc3)c(-c3ccccc3)[nH]2)cc1 | 1.54% |
| NC(Cc1ccccc1)C(=O)N1CCn2c(nc(-c3ccccc3)c2Nc2ccc3c(c2)OCO3)C1 (stereo not given) | 4.11% |
| O=C(Nc1ccc2c3c(cccc13)CC2)c1cccc2ccccc12 | 0% |
| O=C(/C=C/c1ccccc1Cl)Nc1ccc(Oc2ccc3ccccc3c2Cl)c(Cl)c1 | 0% |
| N#Cc1c2c(c(NCc3ccccn3)n3c1nc1ccccc13)CCCC2 | 4.76% |
| O=C(Cc1ccccc1)NC(c1ccccc1)c1ccc2cccnc2c1O (stereo not given) | 13% |
| CCOc1ccccc1-n1c(N)c(C(=O)Nc2ccc(C)cc2)sc1=S | 1.16% |
| C[n+]1c2n(c3ccccc31)N=C(c1ccccc1)CS2 | 3.7% |
| CCN(CC)CCCNC(=S)N(CCc1cccc(C)c1)Cc1cc2cc(OC)c(OC)cc2[nH]c1=O | 11.4% |
| CCC(c1nc2ccccc2c(=O)n1-c1ccccc1OC)N(CCc1ccccc1)C(=O)Nc1ccccc1OC (stereo not given) | 0.943% |
| Cc1nonc1C(=O)NN=Cc1ccc([N+](=O)[O-])o1 | 7.14% |
| Clc1ccc2c(c1)c(-c1ccccc1)nc1nnnn12 | 3.08% |
| O=C(Cc1cccs1)N1CCC(n2c(Cc3ccc(F)cc3)nc3cccnc32)CC1 | 5% |
| CC1=C(C(=O)OC2CCCC2)C(c2ccccc2F)C2=C(CC(c3ccccc3)CC2=O)N1 (stereo not given) | 3.49% |
| Cc1ccc2c(C)nc(Nc3nc(C)cc(-c4ccccc4)n3)nc2c1 | 15.4% |
| CC[n+]1ccccc1C=Cc1ccc(N(C)C)cc1 | 6.57% and 5.88% |
| COC(=O)C1=C(C)NC2=C(C(=O)CC(c3ccccc3Cl)C2)C1c1ccc(OC)c(OC)c1 (stereo not given) | 3.61% |
| C#CC(C)(C)NS(=O)(=O)c1cc(-c2nnc(Nc3cccc(C)c3)c3ccccc23)ccc1C | 0% |
| O=C(Nc1cccc(Cl)c1)c1cc2ccccc2cc1O | 9.62% |
| CCCCN1C(=O)N(c2ccccc2C)C(C)(O)CC1(C)C (stereo not given) | 0% |
| Cc1cc(=O)oc2c1ccc1oc(C(=O)c3ccccc3)c(C)c12 | 5.5% |
| C=CCSc1nc2sc3c(c2c(=O)n1-c1ccccc1)CCN(C)C3 | 7.55% |
| O=C(NCc1ccccc1)C(c1ccc(F)cc1)N(Cc1ccco1)C(=O)c1cnccn1 (stereo not given) | 0% |

| SMILES | IFI |
| --- | --- |
| Cc1cc(C)n(-c2ncc(-c3ccc([N+](=O)[O-])cc3)cn2)n1 | 7.69% |
| COc1ccc(C(=O)C2CC2c2ccc(Cl)cc2)cc1 (stereo not given) | 3.8% |
| CC[n+]1c(/C=C/c2ccc(Cl)cc2)ccc2ccccc21 | 4.84% |
| COc1ccc(N2C(=O)C3C(C2=O)C2(c4ccccc4)C(=O)C3(c3ccccc3)C(c3ccc4c(c3)OCO4)=C2c2ccc3c(c2)OCO3)c([N+](=O)[O-])c1 (stereo not given) | 0% |
| Cc1c(C(=O)Nc2ccccc2)sc2ncn(Cc3ccccc3Cl)c(=O)c12 | 0% |
| Cc1c(C)c(C)c(CNC(=S)NN)c(C)c1C | 2.02% |
| CC(=O)Nc1cc([N+](=O)[O-])ccc1N1CCOCC1 | 0% |
| O=C(NC(=S)Nc1ccc(NC(=O)c2cccs2)cc1)c1ccco1 | 7.69% |
| COc1ccccc1C1CC(c2ccccc2)=NN1C(=O)c1ccccc1 (stereo not given) | 2.3% |
| COc1ccc(N=Nc2nc3ccc(Br)cc3n2C)cc1 | 9.26% |
| CC(=NNC(N)=S)C(C)=NNC(N)=S | 1.12% |
| Cc1c(Br)c([N+](=O)[O-])nn1CC(=O)NC(C)c1ccccc1 (stereo not given) | 0% |
| Cc1cc(N2CCC(C)CC2)nc2ccc(NC(=O)c3ccc([N+](=O)[O-])o3)cc12 | 0% |
| COc1ccc(-c2c[n+](-c3ccccc3)c3n2CCS3)cc1 | 7.69% |
| Cc1c(C#N)c2ccccc2n1CC(=O)Nc1ccc(Br)cc1 | 3.17% |
| COc1ccc(/C=C/c2ccc3ccccc3[n+]2C)cc1OC | 0% |
| CCCCOc1ccc(C2C3CCCC=C3C(C#N)=C(N)C2(C#N)C#N)cc1 (stereo not given) | 0% |
| COc1ccccc1C1SCCN1C(=O)Nc1ccc(Cl)c(Cl)c1 (stereo not given) | 0% |
| Cc1ccc(NC(=O)N(CCN(C)C)Cc2cc3cc4c(cc3[nH]c2=O)OCCO4)cc1 | 6.35% |
| Cc1cccc(OCC(=O)NCCNC2=NS(=O)(=O)c3ccccc32)c1 | 0% |
| CCOC(=O)C1CCN(C(c2cc3cc(OC)c(OC)cc3[nH]c2=O)c2nnnn2Cc2ccccc2)CC1 (stereo not given) | 1.03% |
| COC1=CC(=O)c2c(ccc3c(OC)c(O)ccc23)C1=O | 12.3% |
| CCCOc1ccc(NC(=O)c2ccco2)cc1 | 6.06% |
| O=C(NCc1ccc(Cl)cc1)C(=O)NCc1ccccn1 | 1.54% |
| Nc1ccc(N2CCCCCC2)cc1 | 5.46% |

| SMILES | IFI |
| --- | --- |
| Oc1ccc(-c2ccccc2)cc1CNCCCN1CCOCC1 | 0.87% |
| CN1CCCC1CCNc1ncc(C(=O)NCCc2ccccc2)c(NCC2CCCCC2)n1 (stereo not given) | 0.962% |
| O=C(CSc1nc2ccccc2[nH]1)Nc1ccc2c(c1)OCO2 | 1.18% |
| COc1cncc(-c2cncc(N3CCN(c4ccncc4)CC3)n2)c1 | 0% |
| CCOC(=O)C1=C(C)N=c2sc(=Cc3ccccc3OC(C)=O)c(=O)n2C1c1ccc(OC)cc1 (stereo not given) | 7.06% |
| Cc1cccc(NC(=O)c2ccc(N3CC4CC(C3)c3cccc(=O)n3C4)c(NC(=O)Cc3c(F)cccc3Cl)c2)n1 (stereo not given) | 0% |
| O=S(=O)(c1ccc(Cl)cc1)N1CCN(C(=S)NCc2ccco2)CC1 | 0% |
| COc1ccc(-n2cc(-c3ccc(C)cc3)nc2SCC(=O)Nc2ccc(C)cc2)cc1 | 0% |
| CCCN1CCC(N2CCCC(c3[nH]ncc3-c3cccc(C(F)(F)F)c3)C2)CC1 (stereo not given) | 1.92% |
| Cc1ccc2[nH]c3c(NCCN(C)C)ncnc3c2c1 | 9.8% |
| CC1=C(CC(=O)c2cccs2)C(=O)c2ccccc2C1=O | 6.58% |
| COc1cc(C=NNc2nc3cc(Cl)ccc3[nH]2)cc(OC)c1OC | 0% |
| Cc1cccc(-c2nc3cc(NC(=S)NC(=O)c4ccc(Cl)cc4)ccc3o2)c1 | 0% |
| CC[N+](C)(CC)CCSc1nc2ccccc2c(=S)n1-c1ccc(OC)cc1 | 0% |
| c1ccc(Oc2cccc(CN3CCc4nc(N5CCCCC5)sc4C3)c2)cc1 | 18.3% |
| CC(=O)c1ccc2c3c(onc13)-c1ccccc1C2=O | 0% |
| CN(C(=O)CCNC(=O)Cn1cnc2ccccc2c1=O)C1CCCCC1 | 0% |
| O=C(Oc1ccccc1N1C(=O)C2C3C=CC(C3)C2C1=O)c1ccc([N+](=O)[O-])cc1 (stereo not given) | 0% |
| CCCn1c(-c2cccc(Br)c2)nc2ccccc21 | 0% |
| COc1cc(NC(C)CCCN(Cc2ccccc2OC)C(=O)Nc2cccc(F)c2)c2ncccc2c1 (stereo not given) | 4.81% |
| CCN1C(=O)N(CCC(C)C)C2(CCN(Cc3cc(Cl)ccc3O)CC2)C1=O | 3.7% |
| CCCN1CCC(N2C[C@@H](NC3CCCCCC3)C[C@H]2C(=O)NCCc2ccc3c(c2)OCO3)CC1 | 2% |
| COCCOC(=O)C1=C(C)NC2=C(C(=O)CC(c3ccc(OC)c(OC)c3)C2)C1c1ccccc1C (stereo not given) | 7.59% |
| CCOC(=O)CN(C)Cc1ccc2c(NC(=O)c3ccc(C)s3)c(C(=O)OC)sc2n1 | 1.72% |
| Cc1ccn2c(NC(C)(C)CC(C)(C)C)c(-c3ccccc3OC(=O)c3cccc(F)c3)nc2c1 | 2.83% |

— ChEMBL document CHEMBL1156829
